This is an account of results in PMC4027165, “SAXS analysis of the tRNA-modifying enzyme complex MnmE/MnmG reveals a novel interaction mode and GTP-induced oligomerization” (Nucleic Acids Research, 2014).

Assay [1] addresses T1, MnmG from Escherichia coli, wild type (Escherichia coli, UniProt P0A6U3 1-629).
T1 construct: tRNA uridine 5-carboxymethylaminomethyl modification enzyme MnmG (formerly GidA), Escherichia coli; open reading frame cloned in a pET14b vector; Homodimer of 70-kDa subunits; also called GidA; MnmG wt
T1 sequence (looked up): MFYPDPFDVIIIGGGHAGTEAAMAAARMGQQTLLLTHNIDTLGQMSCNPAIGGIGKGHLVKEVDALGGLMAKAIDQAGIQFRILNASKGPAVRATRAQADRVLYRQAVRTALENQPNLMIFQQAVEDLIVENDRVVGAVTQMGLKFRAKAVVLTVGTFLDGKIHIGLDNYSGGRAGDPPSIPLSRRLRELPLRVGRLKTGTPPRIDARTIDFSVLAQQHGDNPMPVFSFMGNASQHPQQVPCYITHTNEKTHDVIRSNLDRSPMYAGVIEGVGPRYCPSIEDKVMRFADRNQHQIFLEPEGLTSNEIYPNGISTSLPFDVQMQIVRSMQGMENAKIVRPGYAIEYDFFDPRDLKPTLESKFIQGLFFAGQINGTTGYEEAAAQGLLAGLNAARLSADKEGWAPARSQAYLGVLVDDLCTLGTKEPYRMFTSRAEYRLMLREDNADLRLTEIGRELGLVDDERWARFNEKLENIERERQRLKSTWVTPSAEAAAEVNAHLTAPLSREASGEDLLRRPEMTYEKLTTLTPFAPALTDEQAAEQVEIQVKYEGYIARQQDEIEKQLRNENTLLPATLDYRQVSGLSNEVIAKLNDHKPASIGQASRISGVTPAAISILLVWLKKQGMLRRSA
In words: SEC; analytical gel filtration (KW803, Shodex), 1:1 mixture of MnmE and MnmG without nucleotides, 25 ul of 100 uM injected; 50 mM Hepes pH 7.5, 150 mM KCl, 5 mM MgCl2, 5 mM BME; both purified.

Assay [2] has as its target T1, MnmG from Escherichia coli, wild type. Kind of assay: stopped-flow SAXS; 32.5 uM MnmE and 32.5 uM MnmG rapidly mixed 1:1 with GDP-AlFx; 50-ms exposures at different times after mixing; both purified.
For assay [3] the target is unchanged. Kind of assay: SEC; analytical gel filtration (KW803, Shodex); MnmE incubated with 1 mM GDP-AlFx for 30 min, then mixed with MnmG (2:1 or 1:1); down to 5 uM protein; both purified.
Assay [4] has the same target. In words: SEC; gel filtration of the MnmEG complex (alpha2beta2 and alpha4beta2 forms) with Nb_MnmG_1 added in excess; both purified.
Assay [5] has the same target. In words: stopped-flow SAXS; MnmE and MnmG rapidly mixed at high protein concentration without GDP-AlFx; data not shown; both purified.
For assay [6], the target named is MnmG (Y551A, R554A, E558A and R564A) (Escherichia coli) (UniProt P0A6U3). Kind of assay: ITC; 278 K; 20 mM Hepes pH 7.5, 150 mM NaCl, 5 mM MgCl2, 2 mM BME, 1 mM FAD; variants: 700 uM MnmE in the syringe into 50 uM MnmG in the cell and vice versa; one site model; apparent; both purified.
Assay [7] has as its target T1, MnmG from Escherichia coli, wild type. The description is as above.

Changes are numbered by the printed parent chain. Names and notes keep the numbering of the source. Results are given in words; binding and its absence hold for the method and conditions named. Some binding calls cover weakened binding; strength is not graded here.

B1: MnmE from Escherichia coli, wild type (enzyme, UniProt P25522 1-454, looked up)
chain: MSDNDTIVAQATPPGRGGVGILRISGFKAREVAETVLGKLPKPRYADYLPFKDADGSVLDQGIALWFPGPNSFTGEDVLELQGHGGPVILDLLLKRILTIPGLRIARPGEFSERAFLNDKLDLAQAEAIADLIDASSEQAARSALNSLQGAFSARVNHLVEALTHLRIYVEAAIDFPDEEIDFLSDGKIEAQLNDVIADLDAVRAEARQGSLLREGMKVVIAGRPNAGKSSLLNALAGREAAIVTDIAGTTRDVLREHIHIDGMPLHIIDTAGLREASDEVERIGIERAWQEIEQADRVLFMVDGTTTDAVDPAEIWPEFIARLPAKLPITVVRNKADITGETLGMSEVNGHALIRLSARTGEGVDVLRNHLKQSMGFDTNMEGGFLARRRHLQALEQAAEHLQQGKAQLLGAWAGELLAEELRLAQQNLSEITGEFTSDDLLGRIFSSFCIGK
notes: tRNA modification GTPase MnmE (formerly TrmE), Escherichia coli; open reading frame cloned in a pET20 vector; Homodimer of about 50-kDa subunits; Used nucleotide-free, with GDP-AlFx or with GppNHp depending on the experiment; also called TrmE; MnmE wt
For B1, the binding entry in assay [1] is recorded as “binds weakly”; in assay [2], “binds”; in assay [3], “binds”; in assay [4], “binds”; in assay [5] it was “binds”; in assay [6], “no binding (tested: 700 uM in the syringe, 50 uM in the cell)”.

B2: MnmE (N118A, K120A and D122A) (enzyme, UniProt P25522 1-454)
chain: B1 chain with N118A, K120A, D122A
Regarding B2, in assay [7], the binding result was “no binding (tested: 700 uM in the syringe, 50 uM in the cell)”.
